B1: TPR 5TU (parent)
chain: GGAUCUUCUCGAUCUAACAAAAAAGACAAAUCUGCCACAAAGCUUGAGAGCAUCUUCGGAUGCAGAGGCGGCAGCCUUCGGUGGCGCGAUAGCGCCAACGUUCUCAACUAUGACACGCAAAACGCGUGCUCCGUUGAAUGGAGUUUAUCAUG

Experimental findings from the RNAGym collection of RNA variant scans (doi:10.1073/pnas.2313332121) are described below.

Variants at the background level are over-represented here.

The data set covers variants of B1. Description: polymerase ribozyme fitness, log enrichment relative to wild type (log ratio); higher = more active; in vitro selection for triplet polymerase activity. In short, it runs like this:
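Both subunits of a heterodimeric triplet polymerase ribozyme were given their own mutant library, built by PCR and transcribed. Each library was annealed with a biotinylated primer, the partner subunit and triplets, incubated frozen at −7 °C, and its extended constructs gel-excised, captured on streptavidin beads and amplified by RT-PCR, all in one round done in triplicate. Fitness is the logarithm of genotype enrichment relative to wild-type enrichment, with replicates averaged by inverse-variance weighting. That logarithm is base 2, and Illumina-sequenced genotypes needed ≥10 input reads and ≥1 read per output.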
For GGAUCUUCUCGAUCUAACAAAAAAGACAAAUCUGCCACAAAGCUUGAGAGCAUUUUCGGAUGCAGAGGCGGCAGCCUUCGGUGGCGAGCUAGCGCCAACGUUCUCAAUUAUGACACGCAAAACGCGUGCUCCGUUGAAUGAACUUUAUCAUG [C54U C87A A89C C108U G141A G143C], the “polymerase ribozyme fitness (log ratio)” value is at most -4.2. To GGAUCUUCUCGAUCUAACAAAAAAGACAAAUCUGCCACAAAGCUUGAGAGCAUUUUCGGAUGCAGAUGCGGCAGCCUUCGGUGGCGCGAUAGCGCCAACGUUCUCAACUAUGACACGCAAAACGCGUGCUCCGUUGAAGGGAGUUUAUCGUG [C54U G67U U139G A150G] belongs at most -4.2.

Take GGAUCUUCUCGAUCUAACAAAAAAGACAAAUCUGCCACAAAGCUUGAGAGCAUUUUCGUAUGCAGAGGCGGCAGCCUUCGGUGGCGCGAUAGCGCCAACGUUCUCAAAUAUGACACGCAAAACGCGUGCUCCGUGGAAAGGAGUUUAUCAUG [C54U G59U C108A U135G U139A]: the “polymerase ribozyme fitness (log ratio)” value is at most -4.2. Consider GGAUCUUCUCGAUCUAACAAAAAAGACAAAUCUGCCACAAAGCUUGAGAGCAUUUUCGGAUGCAGAGGCAGCAGCCUUCGGUAGCGCGAAAGCGCCAACGUUCUCAACUAUGACACGCAAAACGCGUGCUCCGUUGAAUGGAUUUUAUCAUG [C54U G70A G83A U90A G143U], for which the “polymerase ribozyme fitness (log ratio)” value was at most -4.2. The result for GGAUCUUCUCGAUCUAACAAAAAAGACAAAUCUGCCACAAAGCUUGAGAGCAUUUUCGGAUGCAGAGGCGGCAGCCUUCGGUGGCGUGAUAGCGCCAACGUUCUCAACUAUGACUCGCAAAACGCGUGCUCCGUUGAAUGGAGUUUAUCAUG [C54U C87U A115U] reads -1.85; that for GGAUCUUCUCGAUCUAACAAAAAAGACAAAUCUGCCACAAAGCUUGAGAGCAUUUUCGGAUGCAGAGGCGGCAGCCUUCGGUGACGCGGUAGCGCCAUCGUUCUCAACUAUGACACGCAAAACGCGUGCUCCUUUGAAUGGGGUUUAUCAUG [C54U G84A A89G A98U G133U A142G], at most -4.2; that for GGAUCUUCUCGAUCUAACAAAAAAGACAAAUCUGCCACAAAGCUUGAGAGCAUUUUCGGAUGCAGAGGCGGCAGCCUUCGGUGGCGCGAUAGAGCCAACGUUCUCAACUAUGACACACAAAACGCGUGCUCCGUUGAAUGGAGUUUAUCCUG [C54U C93A G117A A150C], at most -4.2. For the variant GGAUCUUCUCGAUCUAACAAAAAAGACAAAUCUGCCACAAAGCUUGAGAGCAUUUUCGGAUGCAGAGGCGGCAGCCUUCGGUGGCGCGAUAGCGUCAACGUUCUCAACUAUGACACGCAAAACGCGUGCUCCGUUGAAUGGAGUUUAUCAUG [C54U C95U], the “polymerase ribozyme fitness (log ratio)” value is -0.851. To GGAUCUUCUCGAUCUAACAAAAAAGACAAAUCUGCCACAAAGCUUGAGAGCAUUUUCGGAUGCAGAGGCGGCAGCCUUCGGUGGCGCGAUAGCGGCAACGUUCUCAACUAUGACACGCAAAACGCGUGCUCCGUUGAAUGGAGUUUAUCAUG [C54U C95G] belongs -1.07.

With GGAUCUUCUCGAUCUAACAAAAAAGACAAAUCUGCCACAAAGCUUGAGAGCAUUUUCGGAUGCAGAGGCGGCAGCCUUCGGUGACGCGAUAGCGCCAACGUUCUCAACUAUGACACGCAAAACGCGUGCUCCGUUGAAUGGAGUUGAUCAUG [C54U G84A U146G], the “polymerase ribozyme fitness (log ratio)” value is -1.56.

Take GGAUCUUCUCGAUCUAACAAAAAAGACAAAUCUGCCACAAAGCUUGAGAGCAUUUUCGGAUGCAGAGGCGGCAGCCUUCGAUGGCGGGAUAGCGCCAACGUUCUCAACUAUGACACGCAAAACGCGUGCUCCGUUGAAUGGAGUUUAUCAUG [C54U G81A C87G]: the “polymerase ribozyme fitness (log ratio)” value was at most -4.2. GGAUCUUCUCGAUCUAACAAAAAAGACAAAUCUGCCACAAAGCUUGAGAGCAUUUUCGGAUGCAGAAGCGGCAGCCUUCGGUGGCGCGAUUGCGCCGACACUCUCAACGAUGACACGCAAAACGCGUGCUCCGUUGAAUGGAGUUUAUCAUG [C54U G67A A91U A97G G100A U101C U109G]: the “polymerase ribozyme fitness (log ratio)” value is at most -4.2. As for GGAUCUUCUCGAUCUAACAAAAAAGACAAAUCUGCCACAAAGCUUGAGAGCAUUUUCGGAUGCAGAGGCGGCAGCCUUCGGUUGCGCGAUAGCGUCAACGUUCUCAACUAGGACACGCAAAACGCGUGCUCCGGUGAAUGGAGUUUAUCAUG [C54U G83U C95U U111G U134G], the “polymerase ribozyme fitness (log ratio)” value is at most -4.2. To GGAUCUUCUCGAUCUAACAAAAAAGACAAAUCUGCCACAAAGCUUGAGAGCAUUUUCGGAUGCAGAGGCGGCAGCCUUCGGUGGCGCGAUAGCGCCAACGUUCUAAACUAUGACACGCAAAACGCGUGCUGCGUUGAAUGGAGUUUAUCAUG [C54U C105A C131G] belongs at most -4.2. For the variant GGAUCUUCUCGAUCUAACAAAAAAGACAAAUCUGCCACAAAGCUUGAGAGCAUUUUCGGAUGCAGAGGCGGCAGCCUUCGGUGGGGCGAUAGCGCCAACGUUCUCAACUAUGACACGCAAAACGCGUGCUCCGUUGAAUGGAGUUUAUCAUG [C54U C85G], the “polymerase ribozyme fitness (log ratio)” value was -2.49. For GGAUCUUCUCGAUCUAACAAAAAAGACAAAUCUGCCACAAAGCUUGAGAGCAUUUUCGGAUGCAGAGGCGGCAGCCUUCGGUUGAGCGAGAGCGCCAACGUUCUCAACUAUGACACGCAAAACGCGUGCUCCGUUGAAUGGAGUUUAUCAUG [C54U G83U C85A U90G], the “polymerase ribozyme fitness (log ratio)” value was at most -4.2. GGAUCUUCUCGAUCUAACAAAAAAGACAAAUCUGCCACAAAGCUUGAGAGCAUUUUCUGAUGCAGAGGCGGCAGCCUUGGGUGGGGCGAUAGCGCAAACGUUCUCAACUAUGACACGCAAAACGCAUGCUCCGUUGAAUGGAGUUUAUCAUG [C54U G58U C79G C85G C96A G126A]: the “polymerase ribozyme fitness (log ratio)” value was at most -4.2. To GGAUCUUCUCGAUCUAACAAAAAAGACAAAUCUGCCACAAAGCUUGAGAGCAUUUUCGGAUGCAGAGGCCGCAGCUUUCGGUCGCGCGAUAGCGCCAACGUUCUCAACUAUGACACGCAAAACGCGUCCUCCGUUGACUGCAGUUUUUCGUG [C54U G70C C76U G83C G128C A138C G141C A147U A150G] belongs at most -4.2; to GGAUCUUCUCGAUCUAACAAAAAAGACAAAUCUGCCACAAAGCUUGAGAGCAUUUUCGGAUGCAGAGGCGGCAGCCUUCGGUGGCGCGAUAGCGCUAACGUUCUCAACUAUGACACGCAAAACGCGUGCUCCGUUGAAUGGAGGUUAUCAUG [C54U C96U U144G], 0.217.
